This passage reports EC50 results from article PMC3542062, “A phenyl-thiadiazolylidene-amine derivative ejects zinc from retroviral nucleocapsid zinc fingers and inactivates HIV virions” (Retrovirology, 2012).

For the assay, the system named is NNRTIR K103N:Y181C HIV-1 strain. Put plainly: GFP-assay in Jurkat A72 (LTR-GFP) cells. The following applies: Human immunodeficiency virus 1, Jurkat, 72 h, read-out: EC50 NNRTIR K103N:Y181C. Type of assay: cell-based.

Usually EC50 stands for the concentration at which the effect is half-maximal. Regarding `Cn1sc(=N)nc1-c1ccccc1` [WDO-217, 2-methyl-3-phenyl-2H-[1,2,4]thiadiazol-5-ylideneamine], the EC50 is 1300 ± 400 nM.
